Patent US12564641B2 (EISAI R&D MANAGEMENT CO., LTD., priority 2019, dated 2026)

Tests used:
human NSCLC PDX LXFL-529 = assay: Human NSCLC PDX model LXFL-529
Excerpt: (§1) Animals: Female NMRI nu/nu mice, 4 to 6 weeks of age.
Xenotransplantation: LXFL-529 established growing tumor (T3N1M0) from a primary non-small cell lung adenocarcinoma human patient.
(§2) Experimental procedure: Animals were monitored until the tumor implants reached the study volume criteria of 50-250 mm^3 (e.g., 80-200 mm^3) in a sufficient number of animals. […] The process of the assignment to groups (enrollment, stratified randomization) may also be referred to as randomization. The day of randomization was designated as day 0 of the experiment.
(§3) Tumors were measured and mice were weighed twice a week during the experimental period. The first day of dosing was day 1, one day after randomization (day 0).

human NSCLC PDX LXFA-737 = settings: 10 mg/kg single dose i.v.
Method: Animals: Female NMRI nu/nu mice (Crl:NMRI-Foxn1nu), 4 to 6 weeks of age.
Experimental procedure: Animals were monitored until the tumor implants reached the study volume criteria of 50-250 mm^3 (e.g., 80-200 mm^3) in a sufficient number of animals. […] The day of randomization was designated as day 0.
as §3
Statistical analysis: Inhibition of Tumor Growth, Test/Control Value in % (Min. T/C): The test versus control value (T/C in %) was calculated from the ratio of the median residual tumor volume (RTV) values of test versus control groups on day X multiplied by 100. Tumor volume doubling and quadrupling time (Td, Tq) for test and control groups was defined as the time interval (in days) required for a group to reach a median RTV of 200% or 400%.

[1] = DAR of ADC in plasma samples by LC-MS (Example 9); assay type: in vivo, mouse
Method: Dynabeads M-280 streptavidin (100 μL) were incubated with 3 μg of capture select human IgG-Fc PK biotin conjugate for 1 hour at room temperature, then washed with HBS-EP buffer. […] Washed beads containing complex were deglycosylated with Rapid PNGaseF (1 μL) in PNGase buffer for 1 hour at 37° C., then washed once in HBS-EP buffer. […] Samples were analyzed for intact or reduced mass with Synapt G2/M-class UPLC analysis.

[2] = tested on: human mesothelioma HAY xenograft; settings: single dose 5 mg/kg
Method: Female CD-1 IGS mice (Charles River, 7-9 weeks old) were used for the maximum tolerated dose (MTD) study, female NOD.CB17-SCID mice (Jackson Laboratory) were used for the NCI-H2110 and HAY xenograft studies, and female NCr nude mice (Taconic, 5 weeks old) were used for the NCI-N87 xenograft studies. Upon arrival, animals were acclimated for 5-7 days prior to inoculation.
Cryopreserved NCI-H2110, NCI-N87, or HAY cells from frozen stocks were cultured in medium containing necessary supplements.
Mice were injected subcutaneously with 100 μL/mouse of cell mixture and monitored for body weight and tumor growth.
Mice were randomized to five mice per group once tumor implants reached an average volume of 100 mm^3. Treatment was given intravenously at a volume of 200 μL. Terminal body weight was measured and recorded at the end of each study.
Comparison of tumor growth within each experimental group was also performed using the same statistical analysis.

human NSCLC PDX LXFA-586 = assay: Human NSCLC PDX model LXFA-586; settings: 25 mg/kg single dose i.v.
Excerpt: as §1
Xenotransplantation: LXFA-586 established growing tumor (T2N1M0) from a primary non-small cell lung adenocarcinoma human patient.
as §2, with “mmi)” for “mm^3)”
as §3

[3] = In vitro DAR-sensitive matrix stability (Octet, bio-layer interferometry); assay type: in vitro ADME; settings: average; 10 day incubation at 37° C.; 0.1 mg/mL in mouse, rat, cynomolgus monkey, human plasma and serum
Method: Samples removed from each time point were transferred to −80° C. for storage. Analysis was performed using a label-free bio-layer interferometry assay. Matrix samples were diluted to 1:20 in 1×PBS containing 0.05% Tween-20 and 1% BSA (assay buffer). […] Negative control samples were 5% matrix-alone. Biotinylated mesothelin at 5 μg/mL in assay buffer was captured on SA streptavidin biosensor tips (300 sec; Pall-ForteBio), followed by capture of diluted stability samples and controls (300 sec). Payload was then quantitated by binding of rabbit-human chimeric anti-eribulin antibody 5E4 at 100 mg/mL. Association was monitored for 300 sec, at which point binding had reached equilibrium. Binding level at the end of dissociation phase (Req) was determined for each sample at 295 sec of association. Stability was determined by plotting percent Req relative to t0, where: percent Req=Reqtx/Reqt0[100] and tx=0-240 hours. 2.9 In Vitro Cytotoxicity Analysis
345A12-HC15-LC4-VCP-eribulin (DAR2) was analyzed for in vitro stability in mouse, rat, cynomolgus monkey, and human plasma and serum. ADC was incubated in matrix at 0.1 mg/mL for 1 week, and time points were removed after 1, 2, 3, 4, and 10 days. Analysis was done using a DAR-sensitive Octet (biolayer inferometry)-based assay as described in Section 2.3.1.

[4] = tested on: human mesothelioma PDX Meso7212; settings: mouse, in vivo, 10 mg/kg

B1: MORAb-109 (DAR2) (conjugate)
heavy: QVQLVESGGGVVQPGRSLRLSCAASGIDLSSYAMSWVRQAPGKGLEWIGVIDISGNRFYADWVKGRFTISRDNSKNTLYLQMSSLRAEDTAVYYCARVDSRAWGPFNLWGQGTLVTVSS[skipping human IgG1 constant region]
light: DYQMTQSPSSLSASVGDRVTITCQASQSIFSYLAWYQQKPGKAPKLLIYDASDLASGVPSRFSGSGSGTDFTLTISSLQCEDAATYYCQQGYTRSDVDNAFGGGTKVEIKRTVAAPSVFIFPPSDEQLKSGTASVVCLLNNFYPREAKVQWKVDNALQSGNSQESVTEQDSKDSTYSLSSTLTLSKADYEKHKVYACEVTHQGLSSPVTKSFNRGEC
modifications: non-natural residues
Human NSCLC PDX LXFL-529; 12.5 mg/kg i.v.
  anti-tumor efficacy: robust anti-tumor efficacy
Human NSCLC PDX LXFL-529; 25 mg/kg single dose i.v.
  anti-tumor efficacy: robust anti-tumor efficacy
Human NSCLC PDX LXFL-529; single dose i.v.
  tolerability / bodyweight: well tolerated without bodyweight loss
Human NSCLC PDX LXFA-737
  Tq (tumor volume quadrupling time): not reached
  tolerability / bodyweight: well tolerated without bodyweight loss
Human NSCLC PDX LXFA-737; on day 41
  minimum T/C: 2.3%
[1]; 8 hours
  Averaged DAR in plasma: 1.89
  DAR in plasma, individual mice 1-3: 1.88 and 1.86 and 1.92
[1]; 24 hours
  Averaged DAR in plasma: 1.86
  DAR in plasma, individual mice 1-3: 1.83 and 1.86 and 1.90
[1]; 48 hours
  Averaged DAR in plasma: 1.84
  DAR in plasma, individual mice 1-3: 1.87 and 1.82 and 1.83
[1]; 96 hours
  Averaged DAR in plasma: 1.75
  DAR in plasma, individual mice 1-3: 1.83 and 1.65 and 1.78
[1]; 336 hours
  Averaged DAR in plasma: 1.52
  DAR in plasma, individual mice 1-3: 1.38 and 1.54 and 1.64
[1]; 504 hours
  Averaged DAR in plasma: 1.30
  DAR in plasma, individual mice 1-3: 1.08 and 1.18 and 1.63
[2]; FIG. 14A
  anti-tumor response: durable and similar anti-tumor responses
[2]; FIG. 14B
  body weight change: no body weight loss
Human NSCLC PDX LXFA-586
  Tq (tumor volume quadrupling time): not reached
  tolerability / bodyweight: well tolerated without body weight loss
Human NSCLC PDX LXFA-586; on day 41
  minimum T/C: 1.8%
[3]
  release of payload: 20%
[4]
  body weight change: No body weight loss
MSLN-positive cell lines
  cytotoxicity on MSLN-positive cell lines: specific cytotoxicity

Values joined by “and” are separate entries in the source; they are usually repeats but may differ in a detail not shown here. Equal entries are not always repeated.
